Assay results reported in PMC4561423.
These are yes or no findings as the source states them, for the method shown. Binding seen in cells or lysates may run through a third protein. Some entries that bind do so weakly or less than the wild type. For some assays here: Tags and fused reporters may be left off the sequences shown. Values belong to the molecule of their own block, whether it stands above or below them.

By UniProt entry, the sequences of proteins in these tests, tags left out. Where a name states a change or a piece, a line headed by the entry shows the natural chain unless it says otherwise. Chains listed by the source or under a name are the forms on record and can include a tag or linker.
UniProt P70452: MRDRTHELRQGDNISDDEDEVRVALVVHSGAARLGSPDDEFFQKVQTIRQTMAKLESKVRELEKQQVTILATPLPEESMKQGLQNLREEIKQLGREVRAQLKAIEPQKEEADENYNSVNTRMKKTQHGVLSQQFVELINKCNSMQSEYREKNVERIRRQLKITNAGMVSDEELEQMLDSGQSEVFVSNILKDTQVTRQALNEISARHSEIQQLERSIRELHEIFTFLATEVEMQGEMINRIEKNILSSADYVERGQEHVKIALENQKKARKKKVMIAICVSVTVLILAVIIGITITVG
GFP-S-tagged Stx4Δ154-194 (linker region deletion) (P70452, form named): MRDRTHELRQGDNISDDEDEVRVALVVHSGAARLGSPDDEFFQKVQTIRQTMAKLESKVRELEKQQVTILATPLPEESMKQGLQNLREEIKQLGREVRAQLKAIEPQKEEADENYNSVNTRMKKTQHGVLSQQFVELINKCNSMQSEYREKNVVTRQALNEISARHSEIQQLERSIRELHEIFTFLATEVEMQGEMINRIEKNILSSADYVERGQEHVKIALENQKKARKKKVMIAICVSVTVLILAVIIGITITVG
GFP-S-tagged Stx4Δ195-262 (t-SNARE region deletion) (P70452, form named): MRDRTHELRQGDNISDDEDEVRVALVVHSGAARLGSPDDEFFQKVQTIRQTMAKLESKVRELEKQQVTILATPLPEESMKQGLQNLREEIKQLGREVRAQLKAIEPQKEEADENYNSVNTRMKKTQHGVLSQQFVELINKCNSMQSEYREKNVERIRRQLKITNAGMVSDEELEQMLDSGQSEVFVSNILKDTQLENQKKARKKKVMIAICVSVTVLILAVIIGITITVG

What was measured:
[1] = target: T1, glucose transporter 4 (GLUT4), endogenous in C2C12 myoblasts (mouse (endogenous in C2C12)) (UniProt P14142); assay: co-IP; endogenous proteins; control or shCdo-transfected C2C12 cells immunoprecipitated with antibody to GLUT4; blots for GLUT4, Stx4 and Cdo
T1 sequence: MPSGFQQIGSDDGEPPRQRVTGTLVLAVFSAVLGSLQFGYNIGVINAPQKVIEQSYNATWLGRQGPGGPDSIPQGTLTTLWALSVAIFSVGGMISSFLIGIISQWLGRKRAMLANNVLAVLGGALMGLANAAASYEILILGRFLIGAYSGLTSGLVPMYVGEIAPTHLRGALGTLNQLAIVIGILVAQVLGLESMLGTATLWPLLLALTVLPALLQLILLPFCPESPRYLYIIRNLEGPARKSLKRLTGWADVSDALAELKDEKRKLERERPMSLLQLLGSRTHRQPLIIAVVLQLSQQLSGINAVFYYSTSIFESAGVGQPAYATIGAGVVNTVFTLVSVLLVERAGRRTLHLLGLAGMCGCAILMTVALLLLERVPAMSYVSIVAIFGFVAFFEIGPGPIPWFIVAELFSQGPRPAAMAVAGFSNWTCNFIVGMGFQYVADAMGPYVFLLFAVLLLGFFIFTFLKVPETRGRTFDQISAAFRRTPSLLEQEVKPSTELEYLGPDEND

[2] = target: T2, Cdo, endogenous in C2C12 myoblasts (mouse (endogenous in C2C12)) (UniProt Q32MD9); assay: co-IP; endogenous proteins; lysates of differentiating C2C12 myoblasts (D0-D3; control pSuper cells at D2) immunoprecipitated with control IgG or anti-Cdo antibody; blots for Stx4, JLP, Bnip2
T2 sequence: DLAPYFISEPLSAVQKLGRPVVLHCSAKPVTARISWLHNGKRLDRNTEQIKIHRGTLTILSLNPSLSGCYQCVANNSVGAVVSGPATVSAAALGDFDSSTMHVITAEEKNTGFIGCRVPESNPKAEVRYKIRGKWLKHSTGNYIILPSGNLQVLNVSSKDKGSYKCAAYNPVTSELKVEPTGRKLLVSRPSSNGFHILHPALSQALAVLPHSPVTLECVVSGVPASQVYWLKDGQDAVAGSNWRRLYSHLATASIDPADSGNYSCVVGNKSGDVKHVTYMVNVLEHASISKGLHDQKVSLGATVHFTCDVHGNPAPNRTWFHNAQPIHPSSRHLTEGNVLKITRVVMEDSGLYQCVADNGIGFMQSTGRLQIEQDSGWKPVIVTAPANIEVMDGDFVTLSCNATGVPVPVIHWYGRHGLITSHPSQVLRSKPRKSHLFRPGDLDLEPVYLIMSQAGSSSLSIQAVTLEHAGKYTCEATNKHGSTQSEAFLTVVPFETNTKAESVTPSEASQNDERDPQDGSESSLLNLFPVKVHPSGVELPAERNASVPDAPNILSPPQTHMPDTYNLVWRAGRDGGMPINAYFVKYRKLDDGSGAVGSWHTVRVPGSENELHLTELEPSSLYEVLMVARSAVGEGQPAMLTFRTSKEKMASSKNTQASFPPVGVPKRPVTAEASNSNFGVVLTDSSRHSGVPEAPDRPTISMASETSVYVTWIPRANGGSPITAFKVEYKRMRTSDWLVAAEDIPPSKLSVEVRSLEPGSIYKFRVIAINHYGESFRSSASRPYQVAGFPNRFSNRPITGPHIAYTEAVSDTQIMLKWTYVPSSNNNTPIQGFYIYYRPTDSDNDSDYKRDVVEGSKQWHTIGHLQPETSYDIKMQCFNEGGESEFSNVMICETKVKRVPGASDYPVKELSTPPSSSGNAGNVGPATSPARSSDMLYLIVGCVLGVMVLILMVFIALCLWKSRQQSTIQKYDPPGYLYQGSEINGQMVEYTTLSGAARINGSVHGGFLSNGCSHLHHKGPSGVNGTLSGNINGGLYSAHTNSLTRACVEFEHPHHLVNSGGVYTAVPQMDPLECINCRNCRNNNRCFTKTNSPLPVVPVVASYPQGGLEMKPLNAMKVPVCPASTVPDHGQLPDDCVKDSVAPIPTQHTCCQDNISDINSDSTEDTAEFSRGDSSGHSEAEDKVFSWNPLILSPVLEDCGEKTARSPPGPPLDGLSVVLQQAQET

[3] = target: GFP-S-tagged Stx4, full length (mouse) (UniProt P70452); assay: pull-down; 293T cells co-transfected with Cdo and GFP-S-tagged Stx4 (full length or deletion mutants); cell extracts incubated with anti-S (S-agarose) beads; blot with Cdo or GFP antibodies
[4] = target: GFP-S-tagged Stx4Δ154-194 (linker region deletion) (mouse) (UniProt P70452); assay: as above
[5] = target: GFP-S-tagged Stx4Δ195-262 (t-SNARE region deletion) (mouse) (UniProt P70452); assay: as above
[6] = target: myc-tagged Stx4 (Syntaxin 4), full length (aa 1-299) (mouse) (UniProt P70452); assay: co-IP; 293T cells co-transfected with Stx4-myc and Cdo (full length or deletion mutants); whole cell extracts (10 mM Tris-HCl pH 8.0, 150 mM NaCl, 1 mM EDTA, 1 % Triton X-100) incubated with anti-myc and protein G agarose overnight at 4 °C; blot with Cdo antibody

Molecule: Syntaxin 4 (Stx4), endogenous in C2C12 myoblasts (from UniProt P70452 1-298)
- binding [1]: binds
- binding [2]: binds

B3: CdoΔ1035-1160 (receptor, UniProt O35158)
chain: DLATYFISEPLSAVQKLGRPVVLHCSAKPVTARISWLHNGKRLDRNTEQIKIHRGTLTILSLNPSLSGCYQCVANNSVGAVVSGPATVSADALADFDSSTMHVITAEKKNTGFIGCRVPESNPKAEVRYKIRGKWLMYSTGNYIILPSGNLQILNVSSKDKGSYKCAAYNPVTSELKVEPAGRKLLVSRPSSDGFHILHPALSQALAVLPHSPVTLECVVSGVPASQVYWLKDGQDCLSGSNWRRLYSHLATASIDPADSGNYSCVVGNNSSGDVKHVTYTVNVLEHASISKGLHDQKVSLGATVRFTCEVHGNPAPNRTWFHNAQPIRPSSRHLTEGSVLKITGVIMEDSGLYQCMADNGIGFMQSTGRLQIEQDSGQRPVIVTAPANVEVTDGDFVTLSCNATGEPVPVIHWYGRHGLITSHPSQVLRSKSRKSHLFRPGDLDPEPVYLIMSQAGSSSLSIQAVTREHAGKYTCEAVNKHGSTQSEAFLTVVPFETNTKAEPVTPSEASQNDERDPRDGSESGLLNLFPVKVHSGGVELPAEKNASVPDAPNILSPPQTHMPDTYTLVWRTGRDGGMPINAYFVKYRKLDDGSGAVGSWHTVRVPGSESELHLTELEPSSLYEVLMVARSAVGEGQPAMLTFRTSKEKMASSKNTQASFPPVGIPKRPVTSEASNSNFGVVLTDSSRHSGVPEAPDRPTISMASETSVYVTWIPRANGGSPITAFKVEYKRMKSSDWLVAAEDIPPSKLSVEVRSLEPGSIYKFRVIVINHYGESFRSSASRPYQVAGFPNRFSNRPITGPHIAYTEAVSDTQIMLKWTYIPSSNNNTPIQGFYIYYRPTDSDNDSDYKRDVVEGSKQWHTIGHLQPETSYDIKMQCFNEGGESEFSNVMICETKVKRVPGASEYPMKELSTPPSSSGNGGNVGPATSPARSSDMLYLIVGCVLGVMVLILLVFIALCLWKSRQQSAIQKYDPPGYLYQGSEINGQMVEYTTLSGTARINGSVHGGFLGQIPEECLKDSVAPAPTQRTCRQDNTSDINSDSTEDTAEFNRGDSSGHSEAEDKVFSWSPLILSPVLEDCSEKTAWSPPGPPLDGLSVVLQQAQET
- binding [6]: no binding

The remaining lines, values ahead:

- binding [3]: binds
- binding [4]: binds
- binding [5]: no binding
- binding [6]: binds
B1: Cdo (cell adhesion molecule-related, down-regulated by oncogenes), full length, expressed in 293T cells (receptor, UniProt O35158 25-1256)
chain: DLATYFISEPLSAVQKLGRPVVLHCSAKPVTARISWLHNGKRLDRNTEQIKIHRGTLTILSLNPSLSGCYQCVANNSVGAVVSGPATVSADALADFDSSTMHVITAEKKNTGFIGCRVPESNPKAEVRYKIRGKWLMYSTGNYIILPSGNLQILNVSSKDKGSYKCAAYNPVTSELKVEPAGRKLLVSRPSSDGFHILHPALSQALAVLPHSPVTLECVVSGVPASQVYWLKDGQDCLSGSNWRRLYSHLATASIDPADSGNYSCVVGNNSSGDVKHVTYTVNVLEHASISKGLHDQKVSLGATVRFTCEVHGNPAPNRTWFHNAQPIRPSSRHLTEGSVLKITGVIMEDSGLYQCMADNGIGFMQSTGRLQIEQDSGQRPVIVTAPANVEVTDGDFVTLSCNATGEPVPVIHWYGRHGLITSHPSQVLRSKSRKSHLFRPGDLDPEPVYLIMSQAGSSSLSIQAVTREHAGKYTCEAVNKHGSTQSEAFLTVVPFETNTKAEPVTPSEASQNDERDPRDGSESGLLNLFPVKVHSGGVELPAEKNASVPDAPNILSPPQTHMPDTYTLVWRTGRDGGMPINAYFVKYRKLDDGSGAVGSWHTVRVPGSESELHLTELEPSSLYEVLMVARSAVGEGQPAMLTFRTSKEKMASSKNTQASFPPVGIPKRPVTSEASNSNFGVVLTDSSRHSGVPEAPDRPTISMASETSVYVTWIPRANGGSPITAFKVEYKRMKSSDWLVAAEDIPPSKLSVEVRSLEPGSIYKFRVIVINHYGESFRSSASRPYQVAGFPNRFSNRPITGPHIAYTEAVSDTQIMLKWTYIPSSNNNTPIQGFYIYYRPTDSDNDSDYKRDVVEGSKQWHTIGHLQPETSYDIKMQCFNEGGESEFSNVMICETKVKRVPGASEYPMKELSTPPSSSGNGGNVGPATSPARSSDMLYLIVGCVLGVMVLILLVFIALCLWKSRQQSAIQKYDPPGYLYQGSEINGQMVEYTTLSGTARINGSVHGGFLSKGSLSNGCSHLHHKGPNGVNGILNGTINGGLYSAHTSSLTRTCVEFEHPHHLVNGGAVYTAVPQMDPLECINCRNCRNNNRCFTKTNSPLPVVPVVASYPQDGLEMKPLGVMKFPVCPVSTVPDGGQIPEECLKDSVAPAPTQRTCRQDNTSDINSDSTEDTAEFNRGDSSGHSEAEDKVFSWSPLILSPVLEDCSEKTAWSPPGPPLDGLSVVLQQAQET

- binding [6]: no binding
B2: CdoΔ986-1048 (receptor, UniProt O35158)
chain: DLATYFISEPLSAVQKLGRPVVLHCSAKPVTARISWLHNGKRLDRNTEQIKIHRGTLTILSLNPSLSGCYQCVANNSVGAVVSGPATVSADALADFDSSTMHVITAEKKNTGFIGCRVPESNPKAEVRYKIRGKWLMYSTGNYIILPSGNLQILNVSSKDKGSYKCAAYNPVTSELKVEPAGRKLLVSRPSSDGFHILHPALSQALAVLPHSPVTLECVVSGVPASQVYWLKDGQDCLSGSNWRRLYSHLATASIDPADSGNYSCVVGNNSSGDVKHVTYTVNVLEHASISKGLHDQKVSLGATVRFTCEVHGNPAPNRTWFHNAQPIRPSSRHLTEGSVLKITGVIMEDSGLYQCMADNGIGFMQSTGRLQIEQDSGQRPVIVTAPANVEVTDGDFVTLSCNATGEPVPVIHWYGRHGLITSHPSQVLRSKSRKSHLFRPGDLDPEPVYLIMSQAGSSSLSIQAVTREHAGKYTCEAVNKHGSTQSEAFLTVVPFETNTKAEPVTPSEASQNDERDPRDGSESGLLNLFPVKVHSGGVELPAEKNASVPDAPNILSPPQTHMPDTYTLVWRTGRDGGMPINAYFVKYRKLDDGSGAVGSWHTVRVPGSESELHLTELEPSSLYEVLMVARSAVGEGQPAMLTFRTSKEKMASSKNTQASFPPVGIPKRPVTSEASNSNFGVVLTDSSRHSGVPEAPDRPTISMASETSVYVTWIPRANGGSPITAFKVEYKRMKSSDWLVAAEDIPPSKLSVEVRSLEPGSIYKFRVIVINHYGESFRSSASRPYQVAGFPNRFSNRPITGPHIAYTEAVSDTQIMLKWTYIPSSNNNTPIQGFYIYYRPTDSDNDSDYKRDVVEGSKQWHTIGHLQPETSYDIKMQCFNEGGESEFSNVMICETKVKRVPGASEYPMKELSTPPSSSGNGGNVGPATSPARSSDMLYLIVGCVLGVMVLILLVFIALCLKGPNGVNGILNGTINGGLYSAHTSSLTRTCVEFEHPHHLVNGGAVYTAVPQMDPLECINCRNCRNNNRCFTKTNSPLPVVPVVASYPQDGLEMKPLGVMKFPVCPVSTVPDGGQIPEECLKDSVAPAPTQRTCRQDNTSDINSDSTEDTAEFNRGDSSGHSEAEDKVFSWSPLILSPVLEDCSEKTAWSPPGPPLDGLSVVLQQAQET
